Laboratory results from the supplement of paper PMC3334620.
Over roughly 33,000 sequences, “E-score (-0.5 to 0.5)” has its median near -0.035; the highest 2% begin near 0.34. This is one part of the list.

What follows are sequences tested against T1, Mot3 (UniProt P54785) (assay: PBM E-score (8-mer binding enrichment) (E-score (-0.5 to 0.5)); higher = stronger / more preferred TF binding; most listed sequences are background and not binding sites). Details: protein concentration: 200 nM; construct: GST-full length.
T1 sequence: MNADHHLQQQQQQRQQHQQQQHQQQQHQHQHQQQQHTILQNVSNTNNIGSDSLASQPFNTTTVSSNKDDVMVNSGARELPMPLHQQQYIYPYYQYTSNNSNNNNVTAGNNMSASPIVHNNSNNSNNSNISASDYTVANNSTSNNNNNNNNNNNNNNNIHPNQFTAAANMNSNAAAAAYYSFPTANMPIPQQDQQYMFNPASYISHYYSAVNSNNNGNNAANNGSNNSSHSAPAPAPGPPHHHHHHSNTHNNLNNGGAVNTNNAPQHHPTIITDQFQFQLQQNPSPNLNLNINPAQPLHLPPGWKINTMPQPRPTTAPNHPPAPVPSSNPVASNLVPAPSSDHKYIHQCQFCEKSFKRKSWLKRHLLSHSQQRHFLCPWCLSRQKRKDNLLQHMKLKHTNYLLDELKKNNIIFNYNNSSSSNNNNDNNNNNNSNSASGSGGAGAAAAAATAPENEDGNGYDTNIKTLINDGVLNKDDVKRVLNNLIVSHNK
Summary of the method: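 For each ungapped eight-base word taken together with its reverse complement, the Universal PBM Analysis Suite assigned an E-score. Binding data came from GST-tagged yeast transcription factors, applied at about 100-200 nM, on universal all-10-mer Agilent arrays made double-stranded by primer extension. Fluorescent anti-GST marked bound protein, and scans were normalised with masliner.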

Sequence | PBM E-score
AAGAGTCT | -0.202
TCAATCAA | 0.0592
AGGTTAGA | -0.215
AGTTCACA | 0.132
CTTTTCCA | -0.109
AGTACTCG | 0.0379
ACTCCGCT | 0.0442
CGCCAGGC | 0.0445
ATCCCCCC | -0.416
ACCGCAAC | 0.0744
CGTATATC | 0.0514
CTCAGGCC | -0.129
AAGTGAAG | -0.0194
AAACGGCT | -0.153
ACTATCAT | -0.00234
ATGGAGTG | -0.165
TAGGGGAA | -0.127
ACAGTCCC | -0.246
GCCATTAA | 0.00098
CCGAATCA | -0.15
GCATGCAC | -0.0321
GGGTCGTA | -0.0745
GACACGAA | 0.145
GAATCAAC | 0.112
AGCTCTAG | -0.131

Sequence | PBM E-score
CATGGGTC | -0.173
TACGTGCA | 0.093
CACATCAA | 0.105
GACTCCCA | -0.163
GCGTTATA | 0.177
AGAAGGAT | 0.0925
CCTTGAAG | 0.118
ACCCCATA | -0.0949
GAGATCTC | -0.359
GGCATTAC | 0.305
TAGAGACA | -0.187
AGCAAATG | 0.0139
ATCCTGTA | 0.225
CGAATCTC | -0.0738
AGCCAAAC | -0.111
ATACTAAA | 0.0222
ATCGTGAG | -0.15
CGCGTCAA | 0.183
GGCTTTAA | -0.0639
CAATCGGG | -0.0322
CTGCGTCC | -0.17
ATATTTAC | 0.285
GAGTCATA | -0.148
GGAACGGA | 0.0873
AAAAGTGA | 0.116

Sequence | PBM E-score
ATGGTGGC | -0.121
GGAATATA | 0.0523
CTACAGAG | 0.0842
CGCCTACA | 0.224
AGTAACAA | 0.178
GCACGCAA | 0.0235
CGCCTAGC | -0.104
AGATGAGC | -0.118
TATGTAGA | 0.333
CACGAGGA | 0.00456
CCGAGCTA | -0.0595
CATGCAAG | 0.0622
CGATGGAG | -0.172
CGTAATTA | 0.322
CAGATCAC | -0.196
CGTACGAC | -0.0193
GGAGTCGA | -0.15
ATGGACGG | -0.0861
ACTGGGAT | 0.0268
AGGCAAGG | 0.483
CGGCAGGC | 0.226
ACATATAC | 0.258
GGTAGTTA | 0.124
ACGCTGGG | -0.28
CGGCGGGC | -0.348

Sequence | PBM E-score
GTGATTCA | 0.0658
ACGACGCC | -0.0205
ATGCGAGA | -0.149
CAAATACC | 0.0599
CCGCTGCC | -0.0603
GGCTGCGA | -0.3
AGCTAAAG | -0.0941
CAGTCCGC | -0.175
CACCGTGG | -0.0929
ACTACGTG | 0.0857
AAACCTTA | 0.119
AAACTATA | 0.0432
CATCAAAG | 0.11
GGCTGGGA | -0.148
CATCCCGA | -0.123
GCCTCTCA | -0.12
GTATAAAA | 0.189
GTAACTTA | 0.202
GGTTTCAC | 0.0117
TGTTAGAA | 0.243
ACACCTAT | -0.00193
AGTTCTAT | -0.0879
ATGCGGAG | -0.131
ACAACATG | 0.359
ACGAGTGA | 0.113

Sequence | PBM E-score
CTGTTGGC | -0.17
TCGTTAGA | -0.236
CCGTGAGG | -0.203
CGATACTC | -0.259
AACGGCCG | -0.154
AGACGTAC | 0.0104
AACCTCTC | -0.165
CCCAGGCA | 0.461
ATCCGCCC | -0.357
GACACACA | 0.173
ACGCCACG | -0.0165
CCGCCAGA | -0.197
CAGAAGGG | -0.15
GCTACCCC | -0.327
CGTACCAC | -0.0328
CAGCAGCC | -0.0453
ACGGTCAC | -0.224
AACACCTA | 0.174
CACGCAAC | 0.213
CCCATGCC | -0.107
TCTTAGCA | -0.0909
AGTAAGTG | -0.108
GGCGCGAA | -0.0685
GTGAACAC | 0.121
ATATATTA | 0.107

Sequence | PBM E-score
AGTGACCA | -0.224
AAAGGGGA | -0.194
TCCGAACA | -0.0772
ACACTGTG | 0.0126
ACACGCAC | 0.319
CGCGCGAC | -0.177
CGGCTGAC | -0.156
CTTCTCGC | -0.107
AGCTACAC | 0.207
ATCATGAG | -0.0751
GATACCTA | 0.137
ATTTCGCC | -0.0503
CGTTTCTA | 0.0975
AGCGAACG | -0.253
CGGAGCCG | -0.343
CGGTTGCA | -0.132
ACGAATCG | -0.105
GATACAGA | -0.0581
CTTAGGAC | 0.0401
CCCACGAA | -0.00562
TCCAGTAA | 0.0226
AGTGTTTG | 0.166
TACTAGCA | 0.0991
GATAGGTA | 0.27
GCTCGCGA | -0.0627

Sequence | PBM E-score
AATCCTGG | 0.0465
ACATTTAG | 0.138
TCGATCGA | -0.121
CGCCGTGC | 0.119
GAAGGTGC | 0.136
GTTCTCTA | 0.0314
CGCTTAGA | -0.237
CATGCCAG | -0.178
CCAAGATA | -0.0806
AACTGGCC | -0.0837
ACGATGTC | -0.0106
AGCGTTAT | 0.0914
GATATCTA | 0.0319
CATCGCCA | -0.0692
AAACCCTT | 0.0362
AAGTTCTC | -0.107
AGTAAGCG | -0.0636
TATGCTAA | 0.0897
CCACCGTC | -0.236
AGACAGCC | -0.0996
CCCTTTAA | 0.164
TATACGGA | -0.209
